# The inconclusive results got no clear call from the source; some entries with a clear call stand among them for comparison. For some assays here: Potencies beside an inconclusive call are fits to weak or partial responses and may not hold up. Activity calls are given as the source filed them. Unless noted, calls follow the shape of the dose curve; as a rule, active = well fitted curve in the direction sought with a large enough effect in the repeat runs; inconclusive = weak or mixed curves; inactive = no such curve, though single readings can be large; an effect the other way counts as inactive or inconclusive.
# Experiments:
# [1] = qHTS assay for small molecule agonists of the antioxidant response element (ARE) signaling pathway (AID 743202; active = well fitted activation curve with a large enough effect in the signal ratio in the repeat runs, not every such curve was filed as active; inconclusive = weak or mixed curves, or effect the other way; inactive = no such curve, though single readings can be large or run the other way; the % refers to the signal ratio; also: % is scaled to controls: 0 for no effect and ±100 for the full control effect); details: HepG2 ARE-bla reporter, beta-lactamase FRET, 16 h; activation: at 73.3 µM (top of the series) unless noted
# How it was run: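 Following a 16 h, 37 C exposure of reporter HepG2 cells (ARE-driven beta-lactamase, 2,000 cells/well) to compounds, FRET substrate was applied for 2 h at room temperature and fluorescence intensity recorded.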
# [2] = qHTS assay to identify small molecule antagonists of the peroxisome proliferator-activated receptor delta (PPARd) signaling pathway - cell viability counter screen (AID 743213); details: PPARd-bla HEK293H viability, CellTiter-Glo luminescence, 17 h; viability change, negative = cytotoxic: at 62 µM (top of the series) unless noted; also: % is scaled to controls: 0 for no effect and ±100 for the full control effect; nearly all actives have a fitted effect of over 50% in size
# How it was run: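 CellTiter-Glo was added to PPARd-bla HEK293H wells following 17 h compound treatment in the presence of 300 nM L165041. Luminescence was recorded after 30 min at room temperature.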
# [3] = target: Vitamin D3 receptor (Homo sapiens) (UniProt P11473); test: qHTS assay to identify small molecule antagonists of the vitamin D receptor (VDR) signaling pathway (AID 743223; active = well fitted inhibition curve with a large enough effect in the signal ratio in the repeat runs, not every such curve was filed as active; inconclusive = weak or mixed curves, or effect the other way; inactive = no such curve, though single readings can be large or run the other way; the % refers to the signal ratio; also: potency is read from the fitted curve at half-maximal effect); details: VDR-UAS-bla HEK293T, beta-lactamase FRET ratio, 16 h; activity change, negative = inhibition: at 61 µM (top of the series) unless noted
# Sequence of UniProt P11473 (P11473 whole entry, looked up): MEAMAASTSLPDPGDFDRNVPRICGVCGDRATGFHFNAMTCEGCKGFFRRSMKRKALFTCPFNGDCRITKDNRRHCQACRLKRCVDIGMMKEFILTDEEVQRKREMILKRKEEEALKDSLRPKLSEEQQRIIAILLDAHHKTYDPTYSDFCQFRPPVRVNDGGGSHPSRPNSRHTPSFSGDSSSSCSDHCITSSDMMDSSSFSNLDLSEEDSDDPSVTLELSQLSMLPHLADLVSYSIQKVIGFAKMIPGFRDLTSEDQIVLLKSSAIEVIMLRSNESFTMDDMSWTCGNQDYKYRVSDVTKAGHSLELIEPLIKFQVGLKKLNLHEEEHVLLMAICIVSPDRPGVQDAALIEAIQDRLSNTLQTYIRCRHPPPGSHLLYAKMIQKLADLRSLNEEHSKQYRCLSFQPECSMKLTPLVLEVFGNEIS
# How it was run: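 Beta-lactamase activity in VDR-bla cells is measured by FRET substrate fluorescence (2 h, room temperature) after cells spend 16 h at 37C with test compound and 3 nM final 1alpha,25-dihydroxyvitamin D3.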
# [4] = target: Retinoic acid receptor RXR-alpha (Homo sapiens) (UniProt P19793); test: qHTS assay to identify small molecule agonists of the RXR signaling pathway (AID 1159527; calls by dose curve; also: nearly all actives have a fitted effect of over 35% in size; also: potency is read from the fitted curve at half-maximal effect); details: HEK293T RXRa-UAS-bla, beta-lactamase ratio, 16 h; activation: at 76.8 µM (top of the series) unless noted
# Sequence of UniProt P19793 (P19793 whole entry, looked up): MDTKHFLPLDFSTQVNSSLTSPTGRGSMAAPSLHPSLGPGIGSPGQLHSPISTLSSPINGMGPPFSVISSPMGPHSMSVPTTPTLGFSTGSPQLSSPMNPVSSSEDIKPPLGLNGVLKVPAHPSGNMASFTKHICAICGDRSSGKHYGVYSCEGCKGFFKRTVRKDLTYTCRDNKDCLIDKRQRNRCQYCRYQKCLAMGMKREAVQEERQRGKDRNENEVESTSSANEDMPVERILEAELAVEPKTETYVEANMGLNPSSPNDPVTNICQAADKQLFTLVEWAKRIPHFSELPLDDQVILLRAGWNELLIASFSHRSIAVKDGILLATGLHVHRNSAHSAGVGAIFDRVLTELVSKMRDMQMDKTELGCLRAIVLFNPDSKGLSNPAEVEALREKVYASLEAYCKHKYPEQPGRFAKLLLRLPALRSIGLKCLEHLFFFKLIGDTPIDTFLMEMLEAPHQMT
# How it was run: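 Fluorescence ratio readout (460 vs 530 nm) from GeneBLAzer RXR-alpha HEK 293T cells after 16 hr compound treatment; cells seeded 5 hr beforehand in low-serum, charcoal-stripped medium.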
# [5] = qHTS assay to identify small molecule antagonists of the sonic hedgehog signaling (Shh) pathway (AID 1259369; calls by dose curve; also: nearly all actives have a fitted effect of over 45% in size; also: potency is read from the fitted curve at half-maximal effect)
# How it was run: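 Read-out is luminescence from a firefly luciferase gene controlled by the Gli1 response element, in 3T3Gli1-Luc cells pre-incubated 4hr then exposed to compounds and conditioned medium for 24hr.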
# [6] = qHTS assay to identify small molecule antagonists of the progesterone receptor (PR) signaling pathway - cell viability counter screen (AID 1346798); also: nearly all actives have a fitted effect of over 50% in size; also: potency is read from the fitted curve at half-maximal effect
# How it was run: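 ATP content as viability readout: CellTiter-Glo luminescence, 30 min room temperature, in PR-UAS-bla HEK293T cells after 16 hr compound/R5020 treatment at 37C and 5% CO2.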
# [7] = qHTS assay to identify small molecule agonists of the progesterone receptor (PR) signaling pathway - cell viability counter screen (AID 1346799; calls by dose curve; also: nearly all actives have a fitted effect of over 45% in size; also: potency is read from the fitted curve at half-maximal effect)
# How it was run: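 Cytotoxicity in PR-bla HEK293T cells: 16 h compound, 37C; CellTiter-Glo added post-FRET read; luminescence after 30 min RT.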
# [8] = target: Cytochrome P450 2D6 (Homo sapiens) (UniProt P10635); test: Cytochrome P450 Family 2 Subfamily D Member 6 (CYP2D6) small molecule antagonists: luciferase reporter qHTS assay (AID 1671196); also: nearly all actives have a fitted effect of over 50% in size; also: potency is read from the fitted curve at half-maximal effect
# Sequence of UniProt P10635 (P10635 whole entry, looked up): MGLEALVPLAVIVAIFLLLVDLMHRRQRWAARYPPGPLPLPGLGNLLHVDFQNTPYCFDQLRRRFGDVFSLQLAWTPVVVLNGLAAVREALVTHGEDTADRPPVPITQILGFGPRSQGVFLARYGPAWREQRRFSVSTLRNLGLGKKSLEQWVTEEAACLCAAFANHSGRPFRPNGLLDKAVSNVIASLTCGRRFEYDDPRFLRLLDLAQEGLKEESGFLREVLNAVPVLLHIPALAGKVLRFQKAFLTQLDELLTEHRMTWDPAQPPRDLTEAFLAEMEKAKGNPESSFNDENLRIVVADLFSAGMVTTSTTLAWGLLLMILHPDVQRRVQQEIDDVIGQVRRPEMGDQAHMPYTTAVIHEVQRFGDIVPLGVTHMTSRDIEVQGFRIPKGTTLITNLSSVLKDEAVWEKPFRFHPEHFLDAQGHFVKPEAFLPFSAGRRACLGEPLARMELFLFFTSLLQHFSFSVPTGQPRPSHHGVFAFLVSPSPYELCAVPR
# How it was run: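 Room-temperature luminescent CYP2D6 activity assay: compound preincubated 10 min with enzyme–substrate mix, NADPH-initiated reaction 1 h, detection reagent 20 min before reading.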
# [9] = qHTS assay for small molecule disruptors of the mitochondrial membrane potential (AID 720635); details: HepG2 mitochondrial membrane potential, Mito-MPS dye ratio; also: potency is read from the fitted curve at half-maximal effect
# How it was run: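 HepG2 cells (2,000/well) attached overnight at 37C, then took compound for 1 hr at 37C, 5% CO2. Mito-MPS dye was added for 30 min; fluorescence was read at 490/535 nm (monomers) and 540/590 nm (aggregates).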
# [10] = qHTS assay for identifying genotoxic compounds that show differential cytotoxicity against isogenic chicken DT40 cell lines with known DNA damage response pathways - Rev3 mutant cell line (AID 743014); details: chicken DT40 Rev3-/- viability, CellTiter-Glo, 40 h; activity, negative = cytotoxicity: at 68.4 µM (top of the series); also: potency is read from the fitted curve at half-maximal effect; nearly all actives have a fitted effect of over 55% in size
# [11] = qHTS assay to identify small molecule antagonists of the thyroid receptor (TR) signaling pathway - cell viability counter screen (AID 743064); details: GH3.TRE-Luc viability, CellTiter-Fluor, 24 h; activity change, negative = cytotoxic: at 70.3 µM (top of the series) unless noted; also: potency is read from the fitted curve at half-maximal effect; nearly all actives have a fitted effect of over 50% in size
# How it was run: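 Counter screen for cytotoxicity: compound plus T3 (1 nM final) on GH3.TRE-Luc cells, 23.5 h at 37 °C, then fluorescence viability readout with CellTiter-Fluor.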
# [12] = target: Progesterone receptor (Homo sapiens) (UniProt P06401); test: qHTS assay to identify small molecule antagonists of the progesterone receptor (PR) signaling pathway (AID 1346795; active = well fitted inhibition curve with a large enough effect in the signal ratio in the repeat runs, not every such curve was filed as active; inconclusive = weak or mixed curves; the % refers to the signal ratio; also: % is scaled to controls: 0 for no effect and ±100 for the full control effect); details: PR-UAS-bla HEK293T, beta-lactamase FRET ratio, 16 h; activity change, negative = inhibition: at 92.4 µM (top of the series) unless noted
# Sequence of UniProt P06401 (P06401 whole entry, looked up): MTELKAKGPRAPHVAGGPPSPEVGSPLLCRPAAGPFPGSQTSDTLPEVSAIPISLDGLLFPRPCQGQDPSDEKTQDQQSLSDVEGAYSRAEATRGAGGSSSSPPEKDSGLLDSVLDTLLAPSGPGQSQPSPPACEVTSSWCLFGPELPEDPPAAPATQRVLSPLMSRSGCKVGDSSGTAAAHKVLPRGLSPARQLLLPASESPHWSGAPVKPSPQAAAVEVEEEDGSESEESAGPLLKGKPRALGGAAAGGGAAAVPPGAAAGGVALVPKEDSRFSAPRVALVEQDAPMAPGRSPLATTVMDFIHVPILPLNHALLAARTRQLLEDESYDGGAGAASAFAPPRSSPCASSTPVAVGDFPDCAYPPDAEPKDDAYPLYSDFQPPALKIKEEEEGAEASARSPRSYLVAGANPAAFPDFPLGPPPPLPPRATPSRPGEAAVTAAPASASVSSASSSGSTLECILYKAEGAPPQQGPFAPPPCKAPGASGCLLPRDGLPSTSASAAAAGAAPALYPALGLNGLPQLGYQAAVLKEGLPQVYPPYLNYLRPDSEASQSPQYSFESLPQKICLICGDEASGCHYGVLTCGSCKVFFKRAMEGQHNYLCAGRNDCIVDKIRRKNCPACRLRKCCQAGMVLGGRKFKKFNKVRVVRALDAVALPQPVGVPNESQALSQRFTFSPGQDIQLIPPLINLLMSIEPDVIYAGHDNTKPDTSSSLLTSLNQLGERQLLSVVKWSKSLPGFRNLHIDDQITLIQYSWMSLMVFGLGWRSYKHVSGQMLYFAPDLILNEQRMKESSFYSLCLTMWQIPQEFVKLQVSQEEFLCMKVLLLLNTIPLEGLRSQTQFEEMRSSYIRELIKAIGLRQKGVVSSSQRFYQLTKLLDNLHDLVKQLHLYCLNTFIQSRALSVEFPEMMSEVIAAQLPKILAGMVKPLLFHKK
# How it was run: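 Inhibition of R5020-induced (1 nM final) beta-lactamase reporter signal in PR-UAS-bla HEK293T cells was scored by FRET fluorescence after overnight (16 hr) compound treatment.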
# [13] = qHTS assay to identify small molecule agonists of the farnesoid-X-receptor (FXR) signaling pathway - cell viability counter screen (AID 743218); details: FXR-bla HEK293T viability, CellTiter-Glo luminescence, 16 h; viability change, negative = cytotoxic: at 62.6 µM (top of the series); also: potency is read from the fitted curve at half-maximal effect; nearly all actives have a fitted effect of over 45% in size
# How it was run: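 Quantitative HTS counter screen measuring ATP-based viability via CellTiter-Glo luminescence in HEK 293T cells carrying a UAS-driven beta-lactamase reporter, after 16 h compound exposure at 37 C.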
# [14] = target: Cytochrome P450 1A2 (Homo sapiens) (UniProt P05177); test: Cytochrome P450 Family 1 Subfamily A Member 2 (CYP1A2) small molecule antagonists: luciferase reporter qHTS assay (AID 1671199); also: nearly all actives have a fitted effect of over 50% in size; also: potency is read from the fitted curve at half-maximal effect
# Sequence of UniProt P05177 (P05177 whole entry, looked up): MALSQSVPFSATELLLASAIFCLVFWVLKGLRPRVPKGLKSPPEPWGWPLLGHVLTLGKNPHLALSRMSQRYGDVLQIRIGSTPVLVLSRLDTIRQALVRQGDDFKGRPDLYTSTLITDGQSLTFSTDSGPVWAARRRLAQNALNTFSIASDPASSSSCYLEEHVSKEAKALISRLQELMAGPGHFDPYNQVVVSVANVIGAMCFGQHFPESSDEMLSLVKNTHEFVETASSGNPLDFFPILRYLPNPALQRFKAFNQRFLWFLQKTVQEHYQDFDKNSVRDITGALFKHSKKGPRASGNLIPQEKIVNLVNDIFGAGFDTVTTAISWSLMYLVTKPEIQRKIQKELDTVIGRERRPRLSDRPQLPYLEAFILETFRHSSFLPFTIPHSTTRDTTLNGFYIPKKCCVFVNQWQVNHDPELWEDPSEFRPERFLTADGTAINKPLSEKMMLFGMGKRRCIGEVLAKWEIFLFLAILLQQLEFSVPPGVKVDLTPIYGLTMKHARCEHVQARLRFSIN
# How it was run: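 Room-temperature CYP1A2 reaction with proluciferin substrate: compounds added from DMSO, 10 min preincubation, NADPH regeneration for 1 h. Luciferin detection reagent then added; luminescence recorded as RLU.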
# [15] = target: Estrogen receptor beta (Homo sapiens) (UniProt Q92731); test: qHTS assay to identify small molecule antagonists of the estrogen receptor beta (ER-beta) signaling pathway (AID 1259378; active = well fitted inhibition curve with a large enough effect in the signal ratio in the repeat runs, not every such curve was filed as active; inconclusive = weak or mixed curves, or effect the other way; inactive = no such curve, though single readings can be large or run the other way; the % refers to the signal ratio; also: % is scaled to controls: 0 for no effect and ±100 for the full control effect); details: ER-beta-UAS-bla HEK293T, beta-lactamase FRET ratio, 16 h; activity, negative = inhibition: at 92.4 µM (top of the series) unless noted
# How it was run: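 ER-beta-UAS-bla HEK293T (GripTite) cells in 2% charcoal-stripped FBS medium were preincubated 6 hr at 37C, dosed with compound, then stimulated with 1 nM E2 (final) for 16 hr; beta-lactamase reporter read by B/G FRET fluorescence after 2 hr substrate loading.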
# [16] = target: Glucocorticoid receptor (Homo sapiens) (UniProt P04150); test: qHTS assay to identify small molecule antagonists of the glucocorticoid receptor (GR) signaling pathway (AID 720692; active = well fitted inhibition curve with a large enough effect in the signal ratio in the repeat runs, not every such curve was filed as active; inconclusive = weak or mixed curves, or effect the other way; inactive = no such curve, though single readings can be large or run the other way; the % refers to the signal ratio; also: % is scaled to controls: 0 for no effect and ±100 for the full control effect); details: GR-bla HeLa, beta-lactamase FRET ratio, dexamethasone-stimulated, 18 h; activity change, negative = inhibition: at 58.5 µM (top of the series) unless noted
# Sequence of UniProt P04150 (P04150 whole entry, looked up): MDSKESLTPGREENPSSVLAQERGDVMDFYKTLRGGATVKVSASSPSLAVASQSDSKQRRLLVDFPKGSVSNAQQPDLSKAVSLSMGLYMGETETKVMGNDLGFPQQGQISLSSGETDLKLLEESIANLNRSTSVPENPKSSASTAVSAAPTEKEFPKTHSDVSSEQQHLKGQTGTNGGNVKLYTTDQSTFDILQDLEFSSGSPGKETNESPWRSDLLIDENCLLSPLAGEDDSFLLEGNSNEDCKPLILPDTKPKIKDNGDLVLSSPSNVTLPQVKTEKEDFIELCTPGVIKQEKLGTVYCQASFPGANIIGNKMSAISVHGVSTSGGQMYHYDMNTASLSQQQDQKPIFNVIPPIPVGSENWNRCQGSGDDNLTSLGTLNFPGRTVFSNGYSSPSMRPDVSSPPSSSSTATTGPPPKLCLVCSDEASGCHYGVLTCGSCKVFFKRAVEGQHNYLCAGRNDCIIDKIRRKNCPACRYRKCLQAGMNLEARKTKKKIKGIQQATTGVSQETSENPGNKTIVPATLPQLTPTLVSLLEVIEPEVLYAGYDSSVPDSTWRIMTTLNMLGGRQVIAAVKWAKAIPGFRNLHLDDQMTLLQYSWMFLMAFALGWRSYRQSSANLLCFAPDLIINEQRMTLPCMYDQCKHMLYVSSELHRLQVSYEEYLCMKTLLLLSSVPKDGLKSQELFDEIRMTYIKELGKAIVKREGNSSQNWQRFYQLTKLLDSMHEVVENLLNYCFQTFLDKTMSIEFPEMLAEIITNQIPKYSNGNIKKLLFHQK
# How it was run: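 In a 1536-well cell format, compounds were added 4 h after seeding GR-bla HeLa cells, together with dexamethasone at 5 nM final; reporter activity was measured by FRET-substrate fluorescence following 18 h at 37 C.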
# [17] = target: Cytochrome P450 2C19 (Homo sapiens) (UniProt P33261); test: Cytochrome P450 Family 2 Subfamily C Member 19 (CYP2C19) small molecule antagonists: luciferase reporter qHTS assay (AID 1671197); also: potency is read from the fitted curve at half-maximal effect; nearly all actives have a fitted effect of over 65% in size
# How it was run: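 P450-Glo CYP2C19 screening system; proluciferin substrate; DMSO compound stocks; 10 min RT preincubation; NADPH regeneration, 1 h at 37C; luciferin detection reagent, 20 min RT; luminescence as RLU.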
# [18] = target: Cytochrome P450 2C9 (Homo sapiens) (UniProt P11712); test: Cytochrome P450 Family 2 Subfamily C Member 9 (CYP2C9) small molecule antagonists: luciferase reporter qHTS assay (AID 1671198); also: nearly all actives have a fitted effect of over 50% in size; also: potency is read from the fitted curve at half-maximal effect
# Sequence of UniProt P11712 (P11712 whole entry, looked up): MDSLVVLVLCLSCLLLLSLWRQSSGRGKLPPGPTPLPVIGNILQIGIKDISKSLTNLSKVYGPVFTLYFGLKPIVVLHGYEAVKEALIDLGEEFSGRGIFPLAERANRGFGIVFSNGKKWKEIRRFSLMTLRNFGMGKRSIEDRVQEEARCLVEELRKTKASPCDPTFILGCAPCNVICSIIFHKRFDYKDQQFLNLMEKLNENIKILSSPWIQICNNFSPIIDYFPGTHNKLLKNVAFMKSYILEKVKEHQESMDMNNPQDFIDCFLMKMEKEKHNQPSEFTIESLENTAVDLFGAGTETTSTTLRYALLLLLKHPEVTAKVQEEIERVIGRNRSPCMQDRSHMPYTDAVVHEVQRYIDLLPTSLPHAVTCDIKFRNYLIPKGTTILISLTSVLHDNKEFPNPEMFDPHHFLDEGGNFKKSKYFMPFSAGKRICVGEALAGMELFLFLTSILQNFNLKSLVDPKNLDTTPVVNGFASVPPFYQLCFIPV
# How it was run: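 CYP2C9 activity was measured with a P450-Glo proluciferin substrate. Enzyme–substrate mix was held with compound for 10 min at room temperature, then NADPH regeneration solution was added for 1 h at 37C. Luciferin product was read as luminescence.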
# [19] = target: Peroxisome proliferator-activated receptor gamma (Homo sapiens) (UniProt P37231); test: qHTS assay to identify small molecule antagonists of the peroxisome proliferator-activated receptor gamma (PPARg) signaling pathway (AID 743191; calls by dose curve; also: % is scaled to controls: 0 for no effect and ±100 for the full control effect; nearly all actives have a fitted effect of over 30% in size); details: HEK293H PPARg-UAS-bla, beta-lactamase ratio, antagonist, 17 h
# Sequence of UniProt P37231 (P37231 whole entry, looked up): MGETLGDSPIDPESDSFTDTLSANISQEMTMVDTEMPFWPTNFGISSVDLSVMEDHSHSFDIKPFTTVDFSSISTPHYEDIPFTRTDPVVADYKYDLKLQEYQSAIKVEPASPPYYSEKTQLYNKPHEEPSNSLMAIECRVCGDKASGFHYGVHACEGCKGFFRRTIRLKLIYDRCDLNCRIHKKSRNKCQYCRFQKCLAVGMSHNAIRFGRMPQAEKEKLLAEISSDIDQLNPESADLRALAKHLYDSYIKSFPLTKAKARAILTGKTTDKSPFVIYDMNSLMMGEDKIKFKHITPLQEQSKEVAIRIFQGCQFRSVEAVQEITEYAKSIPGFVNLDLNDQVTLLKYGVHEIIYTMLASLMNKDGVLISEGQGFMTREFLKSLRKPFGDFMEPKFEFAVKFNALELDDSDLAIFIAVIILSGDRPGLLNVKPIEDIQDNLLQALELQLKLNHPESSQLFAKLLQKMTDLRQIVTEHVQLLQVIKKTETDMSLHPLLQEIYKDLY
# How it was run: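 GeneBLAzer PPARg UAS-bla HEK293H cells carrying a UAS-driven beta-lactamase reporter were plated at 3000 cells/well, preincubated 5 h at 37C, then given compound for 17 h at 37C; LiveBLAzer B/G FRET substrate was read after 1 h at room temperature.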
# [20] = ratio activity, negative = MMP loss: at 83.2 µM (top of the series) unless noted
# Tags tell the direction and shape of the fitted curve or compound fluorescence and quenching.
compound,measurement,setting,value
Oc1ccc(Cl)cc1Cl,Potency,[1],inactive
same,Potency,[2],inactive
same,Potency,[3],"inconclusive: 0.0014 µM [falling, partial curve, poor fit]"
same,Potency,[4],"inconclusive: 48.6 µM [activator, partial curve] and inactive"
same,Potency,[5],inactive
same,Potency,[6],inactive
same,Potency,[7],inactive
same,Potency,[8],"inconclusive: 62.8 µM [inhibitor, partial curve] and inactive"
CC(C)C1(C)N=C(c2ncccc2C(=O)O)NC1=O (centres undefined),"ratio activity, negative = MMP loss",[9]; [20],inconclusive: 14.3%
same,Potency,[10],"inconclusive: 34.3 µM [cytotoxic, partial curve, poor fit]"
same,Potency,[11],"inconclusive: 15.3 µM [rising, single point]"
same,Potency,[1],inactive
same,Potency,[4],active: 43.5 µM
same,"activity change, negative = inhibition",[12],inconclusive: 7.92%
same,Potency,[6],"inconclusive: 54.3 µM [cytotoxic, single point]"
CCCN,Potency,[2],inactive
same,Potency,[13],"inconclusive: 0.0087 µM [cytotoxic, full curve, poor fit]"
same,activation,[4],inconclusive: 16.9%
same,Potency,[8],"inconclusive: 71.3 µM [inhibitor, partial curve, poor fit]"
same,Potency,[14],"inconclusive: 40.1 µM [inhibitor, partial curve]"
ClC1=C(Cl)[C@]2(Cl)[C@@H]3[C@@H](Cl)[C@H](Cl)C[C@@H]3[C@@]1(Cl)C2(Cl)Cl,Potency,[4],inactive
same,Potency,[15],inactive
same,Potency,[8],inactive
same,Potency,[14],inactive
COC(=O)c1ccccc1S(=O)(=O)NC(=O)Nc1nc(C)cc(C)n1,Potency,[9]; [20],"inconclusive: 27.3 µM [activator, single point]"
same,Potency,[16],inactive
same,Potency,[4],inactive
same,Potency,[7],inactive
same,Potency,[17],"inconclusive: 89.4 µM [inhibitor, single point]"
same,Potency,[18],inactive
same,Potency,[14],inactive
CCCCCCCCCCCC#N,"ratio activity, negative = MMP loss",[9]; at 95.3 µM (top of the series),inactive: -3.02%
same,"ratio activity, negative = MMP loss",[9]; [20],inconclusive: -0.0482% [at 95.3 µM]
same,"ratio activity, negative = inhibition",[19]; at 81.1 µM (top of the series),inactive: 13.8%
same,"ratio activity, negative = inhibition","[19]; ratio activity, negative = inhibition: at 62.6 µM (top of the series) unless noted",inconclusive: 21.6% [at 81.1 µM]
same,Potency,[13],"inconclusive: 2.02 µM [cytotoxic, full curve, poor fit]"
same,Potency,[3],inactive
same,activation,[4],inconclusive: -24.2%
same,Potency,[5],"inconclusive: 25.2 µM [inhibitor, full curve]"
same,Potency,[12],inactive
same,Potency,[7],"inconclusive: 6.18 µM [rising, partial curve, poor fit]"
same,Potency,[8],"inconclusive: 36 µM [inhibitor, partial curve]"
same,Potency,[18],"inconclusive: 64 µM [inhibitor, partial curve] and inactive"
same,Potency,[14],"inconclusive: 71.8 µM [inhibitor, partial curve]"
